According to PMC4336329 (PLoS ONE, 2015):
Screen size: about 310,000 compounds; about 2,200 (0.71%) showed an effect of 50% or more. Effects have a minus sign here. This is one part of the list.

Target: human ether-à-go-go-related gene (hERG) potassium channel (human, UniProt Q12809)
Assay: primary screen, population patch clamp on CHO cells stably expressing hERG

human ether-à-go-go-related gene (hERG) potassium channel, sequence (Q12809 whole entry, looked up): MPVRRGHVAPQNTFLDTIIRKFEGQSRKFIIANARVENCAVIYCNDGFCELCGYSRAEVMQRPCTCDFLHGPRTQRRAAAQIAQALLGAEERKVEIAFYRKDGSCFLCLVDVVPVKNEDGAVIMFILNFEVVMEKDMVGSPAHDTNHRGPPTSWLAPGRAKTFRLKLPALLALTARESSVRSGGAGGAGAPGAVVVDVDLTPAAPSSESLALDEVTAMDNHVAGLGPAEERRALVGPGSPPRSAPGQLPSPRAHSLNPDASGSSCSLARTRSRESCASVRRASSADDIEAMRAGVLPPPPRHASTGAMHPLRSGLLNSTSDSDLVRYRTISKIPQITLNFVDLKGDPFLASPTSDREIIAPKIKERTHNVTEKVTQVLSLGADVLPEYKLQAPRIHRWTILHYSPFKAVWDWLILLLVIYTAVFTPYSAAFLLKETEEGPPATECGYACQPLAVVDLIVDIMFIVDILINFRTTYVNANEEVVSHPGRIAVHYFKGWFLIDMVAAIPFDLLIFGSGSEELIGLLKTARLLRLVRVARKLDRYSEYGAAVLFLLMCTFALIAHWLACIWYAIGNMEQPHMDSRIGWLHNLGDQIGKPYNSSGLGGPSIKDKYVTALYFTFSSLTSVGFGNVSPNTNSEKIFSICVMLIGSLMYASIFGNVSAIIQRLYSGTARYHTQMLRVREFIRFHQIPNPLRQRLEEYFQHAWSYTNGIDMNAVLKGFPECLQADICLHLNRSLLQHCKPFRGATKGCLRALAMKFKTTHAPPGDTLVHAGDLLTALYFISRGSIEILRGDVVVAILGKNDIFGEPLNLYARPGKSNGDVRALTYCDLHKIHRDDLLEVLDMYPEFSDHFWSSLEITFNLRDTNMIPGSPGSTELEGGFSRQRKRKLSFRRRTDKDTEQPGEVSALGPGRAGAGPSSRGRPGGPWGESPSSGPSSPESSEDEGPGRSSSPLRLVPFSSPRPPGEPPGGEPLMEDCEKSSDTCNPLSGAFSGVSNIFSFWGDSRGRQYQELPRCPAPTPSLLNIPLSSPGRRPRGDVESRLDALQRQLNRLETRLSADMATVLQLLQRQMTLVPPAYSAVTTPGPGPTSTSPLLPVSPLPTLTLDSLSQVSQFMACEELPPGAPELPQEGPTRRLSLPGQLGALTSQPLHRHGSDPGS

**Q.** With `S=C(Nc1cccc(Cl)c1)N1CCOCC1` as the compound, how does the “hERG current change (%, negative = inhibition) at 1uM” value read?
**A.** -3%

**Q.** `Cc1ccc(Nc2nc(N)nc(CN3CCN(c4ccccc4)CC3)n2)cc1Cl` was tested. Which “hERG current change (%, negative = inhibition) at 1uM” value did it give?
**A.** -10.8%

**Q.** `NC(=O)CS(=O)(=O)c1nc2ccccc2n1CC(=O)N1CCCCC1` was tested. Which “hERG current change (%, negative = inhibition) at 1uM” value did it give?
**A.** 8.51%

**Q.** `O=C(O)CCC(=O)Nc1sc2c(c1C(=O)NC1CCCC1)CCCC2` was tested. Which “hERG current change (%, negative = inhibition) at 1uM” value did it give?
**A.** 3.19%

**Q.** Which “hERG current change (%, negative = inhibition) at 1uM” value does the source give for `Cc1cccc(-c2noc(CCCOc3ccc(Cl)cc3Cl)n2)c1` here?
**A.** 4.69%

**Q.** For `CC1CCN(S(=O)(=O)c2ccc3c(c2)N(CC(=O)NCCN2C(C)CCCC2C)C(=O)CS3)CC1` (centres unmarked), which “hERG current change (%, negative = inhibition) at 1uM” value is on record?
**A.** -4.99%

**Q.** `CCc1ccc(-n2c(SCc3cc(=O)n4cc(Br)ccc4n3)nc3[nH]ncc3c2=O)cc1` was tested. Which “hERG current change (%, negative = inhibition) at 1uM” value did it give?
**A.** 3.35%

**Q.** With `CC(C)(C)C(=O)NC(=S)N1CCOCC1` as the compound, how does the “hERG current change (%, negative = inhibition) at 1uM” value read?
**A.** 14.3%

**Q.** How did the “hERG current change (%, negative = inhibition) at 1uM” value turn out when `Nn1c(SCC(=O)Nc2cccc(S(N)(=O)=O)c2)nnc1C1CC1` was run?
**A.** 15%

**Q.** With `N#Cc1c(-c2ccccc2)nc(SCC(=O)N2c3ccccc3Sc3ccccc32)[nH]c1=O` as the compound, how does the “hERG current change (%, negative = inhibition) at 1uM” value read?
**A.** 15.1%

**Q.** How did the “hERG current change (%, negative = inhibition) at 1uM” value turn out when `CCOc1ccc(NC(=O)CSc2nnc(C(C)C)n2CC)cc1` was run?
**A.** 14.6%

**Q.** Which “hERG current change (%, negative = inhibition) at 1uM” value does the source give for `COc1cccc(CC(=O)OCC(=O)N(C)CC(=O)Nc2ccc(Cl)c(C(F)(F)F)c2)c1` here?
**A.** 15%

**Q.** `O=C(N/N=C/c1cccc([N+](=O)[O-])c1)c1nc2ccccc2c(=O)[nH]1` was tested. Which “hERG current change (%, negative = inhibition) at 1uM” value did it give?
**A.** 9.58%

**Q.** How did the “hERG current change (%, negative = inhibition) at 1uM” value turn out when `O=C(COC(=O)CCS(=O)(=O)c1ccccc1)Nc1ccc(N2CCCCC2)cc1` was run?
**A.** 12.6%

**Q.** `CCS(=O)(=O)c1ccc(O)c(NC(=O)Nc2ccccc2)c1` was tested. Which “hERG current change (%, negative = inhibition) at 1uM” value did it give?
**A.** 12.4%

**Q.** `CC1CCCC(C(=O)O)N1C(=O)CCSSCCC(=O)N1C(C)CCCC1C(=O)O` (centres unmarked) was tested. Which “hERG current change (%, negative = inhibition) at 1uM” value did it give?
**A.** 17%

**Q.** `Cc1cc(C)nc(Nc2ccc(Cl)cc2C)n1.Cl` was tested. Which “hERG current change (%, negative = inhibition) at 1uM” value did it give?
**A.** 16.7%

**Q.** How did the “hERG current change (%, negative = inhibition) at 1uM” value turn out when `COc1ccc(/C=N/N=C2/NC(=O)C(CC(=O)O)S2)cc1OCc1ccc(Cl)cc1` (centres unmarked) was run?
**A.** -2.33%

**Q.** `CS(=O)(=O)N(CC(=O)N1CCN(Cc2ccccc2)CC1)c1cccc(F)c1` was tested. Which “hERG current change (%, negative = inhibition) at 1uM” value did it give?
**A.** -9.13%

**Q.** Which “hERG current change (%, negative = inhibition) at 1uM” value does the source give for `Cl.O=S(=O)(NC1CCN(Cc2ccccc2)CC1)c1ccc2ccccc2c1` here?
**A.** 4.69%

**Q.** Which “hERG current change (%, negative = inhibition) at 1uM” value does the source give for `O=C(N/N=C/c1c[nH]c2ccccc12)c1cccc([N+](=O)[O-])c1` here?
**A.** 8.58%

**Q.** Which “hERG current change (%, negative = inhibition) at 1uM” value does the source give for `O=C(CCNS(=O)(=O)c1cccc2nonc12)N1CCN(c2cccc(Cl)c2)CC1` here?
**A.** -0.137%

**Q.** With `CCCCc1cn([C@@H](CCCCNC(=O)OC(C)(C)C)C(=O)N2CCN(C(=O)OC(C)(C)C)CC2)nn1` as the compound, how does the “hERG current change (%, negative = inhibition) at 1uM” value read?
**A.** 11.2%
